Measurements as given in patent US12551573B2, “Compositions and methods for the targeting of PCSK9” (Scribe Therapeutics Inc., priority 2022, dated 2026).
Where a chain is given by its changes, count along the chain named.

B1: DOMAIN_11486 (protein, listed as Bos mutus)
chain: SQSPLTFGDVAVEFSGEEWAWLDSAQRSLHRSVMLENYRNLASLGLCLSKPEMISSLEQRKEPWAVKRKSTRGMRPDSQTL
B2: DOMAIN_11348 (protein, listed as Chlorocebus sabaeus)
chain: FQEPLKFRDVAVEFSLEEWQCLDTIQQNLYRNVMLENYRNLVFLGIAVSKPDLITCLEQEKEPWTRKRHRMVAKPVTCSHF
B3: DOMAIN_11386 (protein, listed as Capra hircus)
chain: SQGRLRFQDVAIDFTLEEWECLDLGQRELYRDVMLENYGNLASLGLIVCKPDLVTFLEKMRDPQDVRGIETTAIHPDLASF
B4: DOMAIN_10381 (protein)
chain: SQGSLSFRDVTVGFTWEEWQQLDPAQRALYRDVMLETYSHLLSVGYCIPKPEVILKLEQGEEPWILEEESSSQSVPELINS
modifications: Vicugna pacos
B5: DOMAIN_9857 (protein, listed as Mesocricetus auratus)
chain: SKAPVTFGDLVIYFSQEEWEWLSPIQKDLYEEVMLENYHTLVSLGLVSRRPNIITLLEKGKAPWMVEPSRRRRGPESGSKR
B6: DOMAIN_10091 (protein, listed as Fukomys damarensis)
chain: VTFDDVAVNFTMEEWALLDPSQKKLYRDVMWENFRNVTAIGRNWDNQQIEDQYKNYRNNLRKTSADFQSLQKHAMTNPEEK
B7: DOMAIN_10160 (protein, listed as Ictidomys tridecemlineatus)
chain: AHESLAFRDVAIDLSQEEWECLDTAQRDLYREVMLENYSNLISLGCIIPKPDVIVLLEQEKDPWLETREETRRRSSDFTKK
B8: DOMAIN_10050 (protein, listed as Octodon degus)
chain: RPRALKFADVAVYFSPEEWGCLRPAQRTLYRDVMRETYGHLGALGCAGPKPALISWLERNTDDWEPAALDPQEYPRGVTVQ
B9: DOMAIN_9915 (protein, listed as Mus caroli)
chain: MEDPLSFTDVAIDFSADECECLDSAQWNLYKEVMLENYSNLVFLGLAFSKPHLVTFLEQSSDPWSVKRKASATIPLGSKPH
B10: DOMAIN_9962 (protein, listed as Rattus norvegicus)
chain: B9 chain with M1F, E2Q, P4L, D23E, S24P, H52Y, V66M, T73A, P75H, S78L
B11: DOMAIN_10257 (protein, listed as Octodon degus)
chain: EPWAVTFADVAVYFSSEEWRCLRPAQRALYRDVMRDTYGLLSALGGGGTKPALISWVEGEAELWDPDAQDPEVVRWPAEAD
B12: DOMAIN_10127 (protein, listed as Peromyscus maniculatus)
chain: FQSEVMFRDVTVNFSQEEWECLNSYERDLYKDVMLENYSHLVSLGCSISKPDVITLLEQGKEPWMIVRDERRRWSQDLETR
B13: DOMAIN_10184 (protein, listed as Mus caroli)
chain: B12 chain with F1A, Q2H, E4M, N13D, N23S, K31R, D69A, R71K, Q76R, T80S
B14: DOMAIN_9843 (protein, listed as Mus musculus)
chain: MDAVTYEDVHVNFSREEWVLLDPSQKSLYKDVMLETYWNLTCIGYKWKDHDNEEYCQNSGRHGRCINCPSAYGKKQCTNLF
B15: DOMAIN_9846 (protein, listed as Cricetulus griseus)
chain: EKQFSFQSLLTFEDVAINFSKKEWECLDTSQRDLYRFVMLENYSNLVSVGLSVSKPELVTCLEQNKEPWMVNIEESEVLEP
B16: DOMAIN_10386 (protein, listed as Odobenus rosmarus)
chain: SHGPLSFEDVAIAFTKEEWQQLDPAQRTLYRDVMLENFSHLVSLGHPVSKPDIISRLEQGEEPWIIKRDISDWICPERETR
B17: DOMAIN_10351 (protein)
chain: FQGSVSFKDVTVDFSREEWQQLDLAQKSLYRDVMLENYFNLISVGCQVPKPEVIFNLERGEQPCMLDGEISSQSYLDQGIG
modifications: Delphinapterus leucas
B18: DOMAIN_9824 (protein)
chain: QGSVMFSDVSIIFSQEEWEYLDREQRNLYRNVMMENYSNLVSLAGCFISKPDVITLLEQGKDPWKVVRKGRKRYSDLETSH
modifications: Heterocephalus glaber
B19: DOMAIN_10041 (protein, listed as Mus caroli)
chain: PITFDDVAIIFSPEEWECLDSAQRDLYRDVMVENCRNLLSVEASRHGTKGFSSKKDMKRSFQEELSRRLSKCGADIFHPRK
B20: DOMAIN_10334 (protein, listed as Mustela putorius)
chain: PQKSVTFEDVAVYFTQTEWDGLSPAQRALYRDVMLENYGNVASLGFSLLKPAVISQLEGAGELGRPSPLVAGTEIGLQGLW
B21: DOMAIN_9827 (protein, listed as Mus caroli)
chain: MDAVTFMDVHVNFSQEEWALLNPSQKSLYKDVMLETYWNLTCIGYEWEDHNSEECCQSSRRHGRYFNSSQYSTCKAKGYGK
B22: DOMAIN_10294 (protein, listed as Mus musculus)
chain: SQVSLTFEDVAVLFTRDEWKKLVPSQRSLYREVMLENYSNLASLAGFPFTKPKVISLLQQGEDPWKVEEEGPGGFSLGLKC
B23: DOMAIN_10018 (protein, listed as Octodon degus)
chain: LLPAAGCGKDSGTPATEAVTFEDVAVNFSREEWALLDPPQRKLYRDVMWETLRHLAAVGMNSDDRQIEDVYKICRKNLSGA
B24: DOMAIN_9822 (protein, listed as Ictidomys tridecemlineatus)
chain: EPGAVSFADVAVYFSLEEWGCLRPSQRALYRDVMRETYLHLSALGGGGTKPALISWVEEEAELWHPDAQDPEVAKCPTEAD
B25: DOMAIN_9891 (protein, listed as Mus caroli)
chain: TQRSISFKDLAVDFTREEWQRLGPAQRLLYRDVMLENYSNLIAVGLHVSKPDVILKLEQGKEPWVVENSSRQNHAEDDEPL
B26: DOMAIN_10044 (protein, listed as Mus musculus)
chain: MNAVTYRDVHVNFTQEEWALLDPSQKKLYKDVMLETYRNLNAIGFNWEAQNIEEHCQSSRRHRRCERSQSAEKPSEYTQRD

What follows are molecules tested on HBEGF locus. Details: high-throughput screen of dXR repression of the HBEGF gene; change in abundance of each domain in the library before and after diphtheria toxin selection.
Assay type: cell-based, human

Molecule | Log2 (fold change)
B1 | 4.8326
B2 | 3.3651
B3 | 3.7637

Same assay, conditions: repressor domain in dXR, repression of the HBEGF gene; abundance of domain in library after vs before diphtheria toxin selection

Molecule | Log2 (fold change)
B4 | 2.215
B5 | 3.3666
B6 | 2.1679
B7 | 2.9333
B8 | 3.3147
B9 | 3.4011
B10 | 2.7249
B11 | 3.1757
B12 | 3.6912
B13 | 4.2854
B14 | 2.3385
B15 | 2.7865
B16 | 2.8337
B17 | 3.3309
B18 | 3.1306
B19 | 2.8662
B20 | 3.3529
B21 | 2.1904
B22 | 2.689
B23 | 3.3372
B24 | 2.9382
B25 | 2.8116
B26 | 2.826
